Test results as given in the supplement of paper PMC12067230.
This is a noisy data set.

Experiment: amyloid nucleation score relative to library mode (yeast Sup35 reporter selection) (log enrichment difference); higher = more amyloid nucleation; sequences are the first 22 residues of the Bri2 peptide extended by up to 12 random residues
Conditions: random library (experiment): 1;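 active = nucleation score significantly above 0 at FDR 0.05; inactive = not significantly above 0 or absent from output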
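Note: [psi-pin-] Saccharomyces cerevisiae expressing SupN fusions, induced by 100 µM Cu2SO4, selected 7 d at 30 °C without adenine and uracil, scored by deep sequencing of output versus input.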

Sequence | amyloid nucleation score
EASNCFAIRHFENKFAVETLICCFLCISDRRVGV | 6.64
EASNCFAIRHFENKFAVETLICGWMLTRDVRCSV | inactive
EASNCFAIRHFENKFAVETLICRERVRYMVGWRG | inactive
EASNCFAIRHFENKFAVETLICHHTGIVIKSSCV | inactive
EASNCFAIRHFENKFAVETLICRSCRYCSTWFLT | inactive
EASNCFAIRHFENKFAVETLICGKYG | inactive
EASNCFAIRHFENKFAVETLICKHACRDMSFSLS | 4.11
EASNCFAIRHFENKFAVETLICISWNK | 5.38
EASNCFAIRHFENKFAVETLICERVSNCWGQVDG | inactive
EASNCFAIRHFENKFAVETLICDWGLASHVRTDI | inactive
EASNCFAIRHFENKFAVETLICAHLPLGIMRVSV | inactive
EASNCFAIRHFENKFAVETLICNLVVLLSSNGRE | 7.17
EASNCFAIRHFENKFAVETLICEHVAIAGKVPCS | inactive
EASNCFAIRHFENKFAVETLICPFARHAMMRLSM | inactive
EASNCFAIRHFENKFAVETLICATRAS | inactive
EASNCFAIRHFENKFAVETLICTFWESTTFVGVT | inactive
EASNCFAIRHFENKFAVETLICAGVSQGQAGTGR | -0.00976
EASNCFAIRHFENKFAVETLICGNLPHVPSSVLK | inactive
EASNCFAIRHFENKFAVETLICDQLR | inactive
EASNCFAIRHFENKFAVETLICGSDDLRQRAGLL | inactive
EASNCFAIRHFENKFAVETLICRNVRW | inactive

Sequence | amyloid nucleation score
EASNCFAIRHFENKFAVETLICLVSCFRLYVNPR | inactive
EASNCFAIRHFENKFAVETLICFGVTGKNLAKVW | inactive
EASNCFAIRHFENKFAVETLICHDDSVNMRCPSA | inactive
EASNCFAIRHFENKFAVETLICVIMMKKISSKYV | inactive
EASNCFAIRHFENKFAVETLICFVYNDAMTELQE | 5.52
EASNCFAIRHFENKFAVETLICIAHGGLRTLAL | inactive
EASNCFAIRHFENKFAVETLICLDALVVSANFWE | 1.99
EASNCFAIRHFENKFAVETLICAYASNGEKRSWP | 3.24
EASNCFAIRHFENKFAVETLICMKPGDQCCLCSE | 3.81
EASNCFAIRHFENKFAVETLICRCTTECCCVHCQ | 1.06
EASNCFAIRHFENKFAVETLICYIPMRGLVSWAW | inactive
EASNCFAIRHFENKFAVETLICVRTGALHGALG | -0.258
EASNCFAIRHFENKFAVETLICYCVFCIVELFGD | inactive
EASNCFAIRHFENKFAVETLICNYHGLPPSWMLG | 6.2
EASNCFAIRHFENKFAVETLICFLVVRIGEEEAS | 6.65
EASNCFAIRHFENKFAVETLICGTQGALAGSVVL | 1.1
EASNCFAIRHFENKFAVETLICKMAHMLAWCVCV | inactive
EASNCFAIRHFENKFAVETLICRGEPIGGRHNR | inactive
EASNCFAIRHFENKFAVETLICNLKQILLFYSFP | inactive
EASNCFAIRHFENKFAVETLICVQ | inactive
EASNCFAIRHFENKFAVETLICNSCTLRT | inactive

Same assay, conditions: random library (experiment): 2

Sequence | amyloid nucleation score
EASNCFAIRHFENKFAVETLICMWER | 3.34
EASNCFAIRHFENKFAVETLICVNPERYAATFRW | 3.92
EASNCFAIRHFENKFAVETLICLLFSCGNAYGYW | 5.98
EASNCFAIRHFENKFAVETLICVHPFT | 3.9
EASNCFAIRHFENKFAVETLICRVTYGYKMEFNS | inactive
EASNCFAIRHFENKFAVETLICYKCMYSVNDRRL | 3.33
EASNCFAIRHFENKFAVETLICVNMRVVLAFPTG | inactive
EASNCFAIRHFENKFAVETLICVKVVSG | inactive
EASNCFAIRHFENKFAVETLICRHNIMRGSPWWG | inactive
EASNCFAIRHFENKFAVETLICLRWRYNLVCRSC | inactive
EASNCFAIRHFENKFAVETLICCDNCFT | 6.29
EASNCFAIRHFENKFAVETLICLLMLV | 1.24
EASNCFAIRHFENKFAVETLICNGEVSQRNCPVS | 5.64
EASNCFAIRHFENKFAVETLICGWLIYY | inactive
EASNCFAIRHFENKFAVETLICVIVCTCTVRFSM | inactive
EASNCFAIRHFENKFAVETLICITVCADVVNWLG | inactive
EASNCFAIRHFENKFAVETLICMHFVVVWACVLS | inactive
EASNCFAIRHFENKFAVETLICVEHTKSGVQISR | 4.4
EASNCFAIRHFENKFAVETLICCDLIVLLNGTGG | 8.44

Same assay, conditions: random library (experiment): 3

Sequence | amyloid nucleation score
EASNCFAIRHFENKFAVETLICMPLFRGQNQEYD | 7.43
EASNCFAIRHFENKFAVETLICFHE | inactive
EASNCFAIRHFENKFAVETLICRPARIRGRCLRR | inactive
EASNCFAIRHFENKFAVETLICYYGP | 4.38
EASNCFAIRHFENKFAVETLICFDKWIDIRGNRT | 4.73
EASNCFAIRHFENKFAVETLICCVRCP | 0.34
EASNCFAIRHFENKFAVETLICRPLSGRGAVTVV | inactive
EASNCFAIRHFENKFAVETLICGSGDEKKVPTQG | -0.281
EASNCFAIRHFENKFAVETLICTMALSKQSYDPI | 3.09
EASNCFAIRHFENKFAVETLICRYCSGSPWSVLE | inactive
EASNCFAIRHFENKFAVETLICVLQHDFSEGPGR | 5.68
EASNCFAIRHFENKFAVETLICGSRIEGSLRHGS | inactive
EASNCFAIRHFENKFAVETLICLTRAVSSPHGLA | 3.5
EASNCFAIRHFENKFAVETLICTSGRVVDLGLRL | 2.28
EASNCFAIRHFENKFAVETLICVAQCGGFMGLVC | inactive
EASNCFAIRHFENKFAVETLICTGYPMYRIDMVG | 5.5
EASNCFAIRHFENKFAVETLICLCRVYGSHCVTV | inactive
EASNCFAIRHFENKFAVETLICHYIRRAVYIVII | inactive
EASNCFAIRHFENKFAVETLICRKSVRDPRVPLG | inactive
EASNCFAIRHFENKFAVETLICYNTVTYCVFIVA | 4.54
EASNCFAIRHFENKFAVETLICYQL | 7.14
EASNCFAIRHFENKFAVETLICQVWHKCLGFSNW | inactive
EASNCFAIRHFENKFAVETLICASCTMRKMSVLV | inactive
EASNCFAIRHFENKFAVETLICTGCVNWFITTSS | 8.7
EASNCFAIRHFENKFAVETLICEEAPAPRGRSRL | inactive
